Measured values: PubChem BioAssay AID686979 (National Center for Advancing Translational Sciences (NCATS), 2013)
The campaign covered roughly 420,000 compounds. About 50,000 (12%) were called active. Inconclusive results, whose numbers are uncertain, are shown with a selection of clear calls. Calls come from the whole dose curve; as a rule, active = well fitted inhibition curve with a large enough effect; inconclusive = small, poorly fitted or top-dose-only effect; inactive = flat fitted curve, though single readings scatter. No potency is given beside an inconclusive call; the fits are too rough.

Test: qHTS for Inhibitors of human tyrosyl-DNA phosphodiesterase 1 (TDP1): qHTS in cells in presence of CPT; note: nearly all actives have a fitted effect of over 55% in size
Details: chicken DT40 Tdp1-/-;hTDP1 cells + 20 nM CPT, ATP luminescence, 48 h; activity change, negative = growth inhibition: at 46.2 µM (top of the series) unless noted
In short: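 Chicken DT40 Tdp1-/- cells complemented with human TDP1, 400 cells/well, exposed to compounds plus 20 nM camptothecin for at least 48 h at 37 C; viability read as ATP content by CellTiter-Glo luminescence.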
% is set by controls: 0 for no effect and ±100 for the full control effect; potency is the fitted concentration of half-maximal effect; tags give direction and shape of the fitted curve.

Row | SMILES | Potency | activity change, negative = growth inhibition
1 | COc1ccc(/C=C/C(=O)c2c(O)ccc3c(C)cc(=O)oc23)cc1 | inconclusive [inhibitor, single point] | 
2 | COc1ccc(C2C(C(N)=O)=C(C)Nc3nc(-c4ccccc4OC)nn32)cc1OC (stereo unspecified) |  | inactive: 8.64%
3 | CC(C)c1ccc(C2CC(=O)Nc3cc4c(cc32)OCCO4)cc1 (stereo unspecified) | inconclusive [inhibitor, single point] | 
4 | CC(=O)c1ccc(OCC(O)CN2CCN(S(=O)(=O)c3cccc(Br)c3)CC2)cc1 (stereo unspecified) | inconclusive [inhibitor, single point] | 
5 | COc1ccc(O)c(C(=O)c2cc(C#N)c(=O)n(CC3CCCO3)c2)c1 (stereo unspecified) | inconclusive [inhibitor, single point] | 
6 | CC(C)Oc1ccc(S(=O)(=O)N2CCCCC2)cc1NC(=O)CC1OC(=O)c2ccccc21 (stereo unspecified) | inconclusive [inhibitor, single point] | 
7 | CN(Cc1nc(-c2ccc(Cl)cc2)no1)S(=O)(=O)c1ccccc1 | inconclusive [inhibitor, single point] | 
8 | COc1ccc(C2CC(c3cccc(F)c3)=NN2c2ccc(S(N)(=O)=O)cc2)cc1 (stereo unspecified) | inconclusive [inhibitor, single point] | 
9 | O=C(Cn1cncn1)NCC1Cc2cc(-c3ccsc3)cc(Cl)c2O1 (stereo unspecified) |  | inactive: 5.11% [at 9.04 µM]
10 | CCOc1ccccc1-n1c(SC(C)C(=O)NCC2CCCO2)nc2ccccc2c1=O (stereo unspecified) | inconclusive [inhibitor, single point] | 
11 | O=C(CN1CCOCC1)Nc1ccc(F)cc1 |  | inactive: -8.03%
12 | COc1cccc(CNC(=O)[C@@H]2CCCN2C(=O)[C@H]2CCCCN2C(=O)c2ccc(Cl)cc2)c1 | inconclusive [inhibitor, single point] | 
13 | Cc1ccc(-n2[nH]c(C)c(/C=N/c3ccccn3)c2=O)cc1 | inconclusive [inhibitor, partial curve] | 
14 | CC1=C(C(=O)N(C)C)CC(CC(=O)NC(c2ccccc2)c2ccccc2)C(=O)N1Cc1ccccc1 (stereo unspecified) |  | inactive: -0.831%
15 | Cc1ccc(S(=O)(=O)N(C)C[C@@H]2OCCCC[C@@H](C)Oc3ccc(NS(=O)(=O)c4c(C)noc4C)cc3C(=O)N([C@H](C)CO)C[C@@H]2C)cc1 | active: 16.4 µM | 
16 | CC1CCCC(C)N1C(=O)COc1cccc(Oc2ccccc2)c1 (stereo unspecified) | inconclusive [inhibitor, partial curve] | 
17 | CCc1ccc(NC(=O)Cn2nnc(-c3ccccc3N)n2)cc1 | inconclusive [inhibitor, partial curve] | 
18 | COc1ccc(S(=O)(=O)N(CC(=O)NC(C)c2ccccc2)c2ccc(C)cc2)cc1OC (stereo unspecified) | inconclusive [inhibitor, single point] | 
19 | O=C(c1ccccc1)c1ccc(C(=O)N2CCN(c3ccc(O)cc3)CC2)cc1 |  | inactive: -27.2%
20 | Cc1ccccc1NC(=O)Cn1nnc(S(=O)(=O)c2ccc(C(C)(C)C)cc2)c1N | inconclusive [inhibitor, partial curve] | 
21 | Cc1cc2c(C)cc(=O)[nH]c2cc1NC(=O)CCl | active: 5.17 µM | 

Row | SMILES | Potency | activity change, negative = growth inhibition
22 | O=C1CN(O)C=C2N=c3ccccc3=C2N1c1ccc([N+](=O)[O-])cc1 |  | inconclusive: -2.1% [inhibitor]
23 | COc1ccccc1-c1cnc(C(O)c2ccc(SC)cc2)[nH]1 (stereo unspecified) | active: 29.1 µM | 
24 | O=C(On1c(-c2ccccc2)nc2ccccc2c1=O)c1ccco1 | active: 23.1 µM | 
25 | Cc1noc(C)c1NC(=O)N(C)C[C@H]1Oc2ccc(NC(=O)C3CCCCC3)cc2C(=O)N([C@H](C)CO)C[C@@H]1C |  | inactive: 19.4%
26 | COc1ccccc1N1CCN(C(=O)c2cc3c(=O)n(Cc4cccs4)ccc3nc2C)CC1 | inconclusive [inhibitor, single point] | 
27 | CCN(c1ccccc1)S(=O)(=O)c1ccc(Cl)c(NC(=O)CSc2nncs2)c1 | inconclusive [inhibitor, single point] | 
28 | Cc1cc(N(CCO)CCO)ccc1N=Nc1cc(F)ccc1F | inconclusive [inhibitor, single point] | 
29 | O=C(CN(C1CCCCC1)S(=O)(=O)c1ccc(Cl)cc1)NCc1cccnc1 | inconclusive [inhibitor, single point] | 
30 | CCOC(=O)c1c(NC(=O)Cc2coc3ccc(CC)cc23)sc2c1CCC2 | inconclusive [inhibitor, single point] | 
31 | CCCSCCCNC(=O)Cn1cc2c(n1)CCC(C)C2 (stereo unspecified) | inconclusive [inhibitor, partial curve, poor fit] | 
32 | Cc1ccc(-n2ncc3c(NCCCn4ccnc4)ncnc32)cc1C | inconclusive [inhibitor, single point] | 
33 | CCc1ccccc1N(CC(=O)Nc1cccc(N(C)S(C)(=O)=O)c1)S(C)(=O)=O |  | inactive: -19%
34 | COc1ccccc1-c1ccc2c(c1)O[C@@H](CN(C)C(=O)Nc1cccc(F)c1)[C@H](C)CN([C@H](C)CO)S2(=O)=O | inconclusive [inhibitor, single point] | 
35 | CCCCCCCCCCCCCCCCOCC(COP(=O)([O-])OCC[N+](C)(C)C)OC (stereo unspecified) | inconclusive [inhibitor, single point] | 
36 | COc1ccccc1-c1cc(C(=O)Nc2cc(C)n(Cc3ccc(Cl)cc3)n2)no1 | inconclusive [inhibitor, single point] | 
37 | CCCNc1c(NC(=O)C2CCC(C)CC2)c(=O)oc2ccccc12 (stereo unspecified) | inconclusive [inhibitor, partial curve] | 
38 | O=[N+]([O-])c1cccc(S(=O)(=O)N2CN(c3ccc(Br)cc3)c3nc4ccccc4nc32)c1 |  | inactive: -4.35%
39 | O=[N+]([O-])c1ccc(/C=C/c2ccncc2)cc1 | inconclusive [inhibitor, single point] | 
40 | COc1ccc(C(=O)Nc2ccc(S(=O)(=O)Nc3onc(C)c3C)cc2)cc1OC |  | inactive: -6.94%
41 | CN1C(=C2C(=O)OC(C)(C)OC2=O)Sc2ccccc21 | inconclusive [inhibitor, single point] | 
